This is one part of the list.
B1: PhoQ; a variant is named by its letters at X, in order, P23837 (parent)
chain: MKKLLRLFFPLSLRVRFLLATAAVVLVLSLAYGMVALIGYSVSFDKTTFRLLRGESNLFYTLAKWENNKLHVELPENIDKQSPTMTLIYDENGQLLWAQRDVPWLMKMIQPDWLKSNGFHEIEADVNDTSLLLSGDHSIQQQLQEVREDDDDAEMTHSVAVNVYPATSRMPKLTIVVVDTIPVELKSSYMVWSWFIYVLSANLLLVIPLLWVAAWWSLRPIEALAKEVRELEEHNRELLNPATTRELTSLVRNLNRLLKSERERYDKYRTTLTDLTHSLKTPLXXLQXXLRSLRSEKMSVSDAEPVMLEQISRISQQIGYYLHRASMRGGTLLSRELHPVAPLLDNLTSALNKVYQRKGVNISLDISPEISFVGEQNDFVEVMGNVLDNACKYCLEFVEISARQTDEHLYIVVEDDGPGIPLSKREVIFDRGQRVDTLRPGQGVGLAVAREITEQYEGKIVAGESMLGGARMEVIFGRQHSAPKDE

Variants of: B1
Assay: enrichment ratio after two sorts for PhoP signalling (ratio (wild type AVST 3.29)); higher = more functional
Settings: with PhoP (E. coli)

Variant | enrichment ratio
HEKG | ≤ 0.25
RANR | ≤ 0.25
KGWH | ≤ 0.25
PNAG | ≤ 0.25
KNID | ≤ 0.25
MEFM | ≤ 0.25
HCFL | ≤ 0.25
SEGI | 5.82
KYQQ | ≤ 0.25
PARY | ≤ 0.25
LPRS | ≤ 0.25
FPVE | ≤ 0.25
KPPF | ≤ 0.25
PRCD | ≤ 0.25
PSDL | ≤ 0.25
RDMR | ≤ 0.25
IIHF | ≤ 0.25
QRIL | ≤ 0.25
EGWC | ≤ 0.25
GIFK | ≤ 0.25
RMAG | ≤ 0.25
GMVM | 3.22
KHPW | ≤ 0.25
PIEH | ≤ 0.25
NGVF | ≤ 0.25
VGGC | ≤ 0.25

Variant | enrichment ratio
RVQY | ≤ 0.25
MQAM | 2.71
WLML | ≤ 0.25
FGNR | 0.48
FRFT | ≤ 0.25
YQGK | ≤ 0.25
TVTP | ≤ 0.25
AHVW | ≤ 0.25
DWLG | ≤ 0.25
SPHD | ≤ 0.25
IKWF | ≤ 0.25
ITRD | ≤ 0.25
FYVF | ≤ 0.25
TYIW | ≤ 0.25
QLTC | 5.06
PDQF | ≤ 0.25
KHLS | ≤ 0.25
DASQ | ≤ 0.25
TIPI | 1.26
APFV | ≤ 0.25
ASAP | ≤ 0.25
TLND | 1.48
GRPK | 0.916
AWWP | ≤ 0.25
QVMQ | ≤ 0.25
IMNK | ≤ 0.25

Variant | enrichment ratio
WVGD | ≤ 0.25
NTNW | ≤ 0.25
SSDR | ≤ 0.25
KILH | ≤ 0.25
RADT | ≤ 0.25
FEYC | ≤ 0.25
WPYH | ≤ 0.25
DTAC | ≤ 0.25
NQQL | ≤ 0.25
PYRH | ≤ 0.25
SVMH | 22.9
YLLK | ≤ 0.25
VQWI | ≤ 0.25
QWDY | ≤ 0.25
SYAD | ≤ 0.25
FKWS | ≤ 0.25
VSGV | 0.304
IFVC | ≤ 0.25
QIPF | ≤ 0.25
NRET | ≤ 0.25
IQYR | ≤ 0.25
VRQP | ≤ 0.25
RTCT | ≤ 0.25
DKYA | ≤ 0.25
VCIE | ≤ 0.25
MPWD | ≤ 0.25

Variant | enrichment ratio
EPSL | ≤ 0.25
YGEW | ≤ 0.25
IETW | ≤ 0.25
THTH | 4.46
SERR | ≤ 0.25
RASD | ≤ 0.25
WIRK | ≤ 0.25
WMHK | ≤ 0.25
FTNK | ≤ 0.25
NQDI | ≤ 0.25
WMFA | ≤ 0.25
DTQE | ≤ 0.25
LELS | 10.9
MCHT | ≤ 0.25
HMQG | ≤ 0.25
SNWD | ≤ 0.25
SWCQ | ≤ 0.25
NFTG | ≤ 0.25
TRTT | ≤ 0.25
ICLS | 1.16
PQLM | ≤ 0.25
DQWI | ≤ 0.25
AGYG | ≤ 0.25
KGWV | ≤ 0.25
SCHY | ≤ 0.25
ECGP | ≤ 0.25

Variant | enrichment ratio
QNWS | 8.87
DCIH | ≤ 0.25
EHWC | ≤ 0.25
SIIY | 1
MMVF | ≤ 0.25
WWFD | ≤ 0.25
YMKV | ≤ 0.25
YQIC | ≤ 0.25
MGCS | 6.13
TKEK | ≤ 0.25
YPIH | ≤ 0.25
KPVM | ≤ 0.25
SDTF | ≤ 0.25
RVPL | ≤ 0.25
PTQC | ≤ 0.25
DGHQ | ≤ 0.25
RTQF | ≤ 0.25
AQNW | ≤ 0.25
SQIS | 13.9
SPSL | ≤ 0.25
DNSG | ≤ 0.25
SITY | 12.7
VASP | ≤ 0.25
RQCK | ≤ 0.25
HESG | ≤ 0.25
TLAH | 7.64

Variant | enrichment ratio
TSVW | ≤ 0.25
PERI | ≤ 0.25
GGAW | ≤ 0.25
MVQH | ≤ 0.25
DGRI | ≤ 0.25
YMPV | ≤ 0.25
EPDH | ≤ 0.25
FDKW | ≤ 0.25
NNCQ | ≤ 0.25
IKYV | ≤ 0.25
MQYT | 3.84
NARL | ≤ 0.25
MLTS | ≤ 0.25
YGCC | ≤ 0.25
YKDE | ≤ 0.25
NLTF | ≤ 0.25
HHDW | ≤ 0.25
QVEP | ≤ 0.25
FKYG | ≤ 0.25
PIGE | ≤ 0.25
TEVW | 7.43
ELLN | ≤ 0.25
RCMR | ≤ 0.25

— a collection of fitness landscapes (doi:10.1126/science.1257360)
